The values that follow come from PMC12136788.

The other results are listed elsewhere or left out.

T1: UNK ZnF1-3 (human, UniProt Q9C0B0 31-174)
T1 sequence: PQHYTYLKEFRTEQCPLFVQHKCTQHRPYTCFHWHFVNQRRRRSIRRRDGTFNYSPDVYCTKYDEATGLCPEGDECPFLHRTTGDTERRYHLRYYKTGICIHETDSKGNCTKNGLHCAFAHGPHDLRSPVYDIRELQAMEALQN

B1: chr1:46159521:46159522:+_ENSG00000159596_ENST00000372025|hu_hu|FALSE|FALSE (ssRNA)
RNA: GGGAGUUCUACAGUCCGACGAUCUUUUUAUACUUGACCAGGUCUCUUAUGUCCUUUUUCUGGAAAACUACUUUUAACUACUAAAGUGAUUAUAAAUGAAAAAGUGGCCAAUAAAGUGACUACUAUCCUCAGGGCUUUAAACCACAACAGAGGAUUGAGCAUCA
B2: chrX:40531158:40531159:-_ENSG00000180182_ENST00000324817|hu_hu|FALSE|FALSE (ssRNA)
RNA: GGGAGUUCUACAGUCCGACGAUCAUGCAGAUUUCCUGGAGACUGUGUGUGCAUCAUUGAGGGAGACUGAUUGACUGUGCUAUGAUAAGAUGUAGGGGGUGAAGUAAGAGGAUAAGCACCUGAUGUUCCUGGCUGCUUUGGAAACAACAGAGGAUUGAGCAUCA
B3: chr7:65705475:65705476:+_ENSG00000169902_ENST00000304842|hu_mus|FALSE|FALSE (ssRNA)
RNA: GGGAGUUCUACAGUCCGACGAUCUCUAUUCGGUGAUGGCACUCCAUGGCAUGCUGGCCCAGGUAAAACACGGUCACAGAACUAAUCACCAGACACGCCAAGAGUAAGUUCUGCUUCAGCUUCCCAACCAUCUUGAUGUGGUUACAACAGAGGAUUGAGCAUCA
B4: chr7:151048522:151048523:+_ENSG00000013374_ENST00000566856|hu_mus|hu_hu_hu_mus_True|58_58 (ssRNA)
RNA: GGGAGUUCUACAGUCCGACGAUCCUGUUUCUUAUUUAUUACGAUCUUGAUGUAAUUUUCUUGAAAUCCGAAAGUUUCAGCUAUUUUACACCUCAGGUCUCUACCAGUGACAUGCAAGCGGGUCUCCAACAAGCUUUUCUUAUCCAACAGAGGAUUGAGCAUCA
B5: chrX:98838459:98838460:+_ENSMUSG00000034160_ENSMUST00000044475|mus_hu|motif|central (ssRNA)
RNA: GGGAGUUCUACAGUCCGACGAUCCCCCAAAUUCGAAUAAGCUUCUGCCAGAAGGGGGUUCUGUUUAAUUGCCAGAGUGCGGAAGUGAGCAGAUCUGUCCAGCCUUCGACACUGGAAGUGUAUAGAUGAAAGUAAUAAAAGCACCAACAGAGGAUUGAGCAUCA
B6: chrX:140365796:140365797:-_ENSMUSG00000031285_ENSMUST00000033642|mus_mus|mus_mus_mus_hu_False|1_98 (ssRNA)
RNA: GGGAGUUCUACAGUCCGACGAUCCUUCUCAUUACUCAAUGCCUGCAAGGUUCUGGUUCGGUAGAAGCUACAGUGGGCGCUGUGAGUGGGGCUAGGCAACCCAUUCAUCCGGGAGCCUCGCAUGUUCCUGGAUGUCUUGUCUCGCAACAGAGGAUUGAGCAUCA
B7: chr9:128067362:128067363:+_ENSG00000165219_ENST00000394104|hu_hu|motif|central (ssRNA)
RNA: GGGAGUUCUACAGUCCGACGAUCAAACUUUCCAAGGCUGCUCUUUGUUCGGGGAUCUCCCUCUUCAGAGCCAGUCAUUGCGGACUGCUGCAAAAGGCGGCCUACCUGCAUCAGAUUAAAUCGUGCUACUUCAUUAAUAGGAGCCAACAGAGGAUUGAGCAUCA
B8: chr5:172341789:172341790:+_ENSG00000113719_ENST00000393784|hu_mus|FALSE|FALSE (ssRNA)
RNA: GGGAGUUCUACAGUCCGACGAUCGGGAACCUUGUUGAUGCUGAACUGGCCCUCGAAGCGGCAGCCGGCUCCAUUAUUCAGCGGGAUCUUCAUGGAAUUGUCGAUGUGGCCCACUUCGUGUCUGCCCAUCUCAUCUUGGAUGUCCAACAGAGGAUUGAGCAUCA
B9: chr2:179988524:179988525:-_ENSG00000187231_ENST00000428443|hu_mus|FALSE|FALSE (ssRNA)
RNA: GGGAGUUCUACAGUCCGACGAUCUAAAGUUUGCUGAAUCGAUGCUCCAUCAGCUGGUGCUACAUCUACGCACAACAUCCCUAAUAAGCCGUCCAACUGCUGAGACAAAUCUUGGGCCACACCAUGAAAUUCCAAAGCUGCCUGCAACAGAGGAUUGAGCAUCA
B10: chr7:135839355:135839356:+_ENSMUSG00000042105_ENSMUST00000151237|mus_hu|FALSE|FALSE (ssRNA)
RNA: GGGAGUUCUACAGUCCGACGAUCCUCCUAGGUUUACAUUGUAUAGGCAGCAGAGUAUUUUUAAUGUGUUCAAGUAGAAUACGGGGAAAAUUAGGAUCAAAUGAGAAUUCAUUUCUCUAGUGUCAAUAACCCUCAACUCCUCAGCAACAGAGGAUUGAGCAUCA
B11: chr8:117878989:117878990:-_ENSG00000164754_ENST00000297338|hu_hu|hu_hu_hu_mus_True|1_98 (ssRNA)
RNA: GGGAGUUCUACAGUCCGACGAUCCCAGAGGCCCUCGUUUACUGAGAACAAAAUGUGCGUAGAACAUUUUUCUUAUUUGCUAUGAAAUAAGAAGAAACCUGGAUCUCGGCGGGGAGCCGGGAGGGGUGGGUGGCCCGGGGGAGGCAACAGAGGAUUGAGCAUCA
B12: chr15:72338896:72338897:-_ENSG00000066933_ENST00000356056|hu_mus|FALSE|FALSE (ssRNA)
RNA: GGGAGUUCUACAGUCCGACGAUCGAUAUAUUCGCAAUGUGUGUUCAUUAUCCUCAAAGCGUCGUCUUCCUCCAUCACUUACAUUCAUAUUGGAUCUUGUCCCAUCAGAAAGGACAGUAUGUGGUCAGGACUGGGCAAACCAUUCAACAGAGGAUUGAGCAUCA
B13: 86629119_86633875_508_CDS_ENSG00000145715_ENST00000456692|human|control|control (ssRNA)
RNA: GGGAGUUCUACAGUCCGACGAUCUUGUUCAUCUGUUCUUAAAUUUGUAACCCACAUCCAUCCAUCUUCUAAUUCAUUAUGAACAAUGAACAUAUCUCCUUUUAAGAAACUUAUUUCAUCAGUGUCUGGUACUUUUGUGUAAGGCAACAGAGGAUUGAGCAUCA
B14: chr5:125867735:125867736:-_ENSMUSG00000008348_ENSMUST00000136312|mus_hu|FALSE|FALSE (ssRNA)
RNA: GGGAGUUCUACAGUCCGACGAUCGGUCUUACCAGUCAGGGUCUUCACGAAGAUCUGCAUCCCACCUCUGAGACGGAGCACCAGGUGCAGGGUAGACUCUUUCUGGAUGUUGUAGUCAGACAGGGUGCGCCCAUCUUCCAGCUGCAACAGAGGAUUGAGCAUCA
B15: chr17:46686077:46686078:-_ENSMUSG00000015605_ENSMUST00000015749|mus_hu|FALSE|FALSE (ssRNA)
RNA: GGGAGUUCUACAGUCCGACGAUCGCGGGCGGAUCAUUCACUCUUGGUGCUGUGGGCGGUGUCCAGGUUCACCACCUGUAGCUCGGUGAGGUUGCUGCUGCUCCCGGCCUGCUGCCCUAUCACAGCCAUCUGGUGGAGCUGAACCAACAGAGGAUUGAGCAUCA
B16: chr2:232319755:232319756:-_ENSG00000115053_ENST00000322723|hu_hu|FALSE|FALSE (ssRNA)
RNA: GGGAGUUCUACAGUCCGACGAUCAAAAGUUUAUAUGAAUAUCCAGUCAAAACCAACACGGUAUUGCCCUUGAAAUGUUAACUAGACGGAUUUCCAAGGAGACCACAGGACUGUAUACUGUCUUGGAAUGUCCUCAGAAGGCUCCAACAGAGGAUUGAGCAUCA
B17: 120456670_120457671_4033_CDS_ENSMUSG00000064302_ENSMUST00000049404|mouse|control|control (ssRNA)
RNA: GGGAGUUCUACAGUCCGACGAUCACAGUUGGUGGGUGAGGUCAGGGGGCUGGUCCUGCUGCUGGGGUGGCGGGAAGGUGUCCGGCCAAUUGUAUUGCUUGGAGAUCCCACACCGGUGUUACUGGAGUUCUUGAGGUGGUUAUGCAACAGAGGAUUGAGCAUCA
B18: chr1:38489359:38489360:+_ENSG00000183520_ENST00000537711|hu_hu|FALSE|FALSE (ssRNA)
RNA: GGGAGUUCUACAGUCCGACGAUCUAGUUAUGGUUACAAACCGGAAAACCAUGCCAUUUGGAGUAAUGGAAUUUGAAGUUACUAGAAAACGACAACAGAUUUUUGAUACAGAAUGACAAGGCUUAUCUAUAACACGUCAACGUUCAACAGAGGAUUGAGCAUCA
B19: chr10:1063573:1063574:+_ENSG00000107937_ENST00000545048|hu_mus|motif|central (ssRNA)
RNA: GGGAGUUCUACAGUCCGACGAUCACUAUGUUUUUGCUGGGUGUUUACUUUGGAUAAAAUGGUUGAAGUUACAAUGAUACAUUGUACGGCAGGUUUAGAAAAUAAUUUAAGAGUAGUUUAAGCUCUGAUAAACCCUAAAUGUAACAACAGAGGAUUGAGCAUCA
B20: chr12:36856662:36856663:-_ENSMUSG00000020547_ENSMUST00000020856|mus_hu|motif|central (ssRNA)
RNA: GGGAGUUCUACAGUCCGACGAUCAAGCAUACUGCCAGCCACCAGGAUAUCGAAGAGUGUGUCUGCAUAGCGACGAUAAUCGGAUCUUGAGCCUGUAGAGUCCAGAAAUUUGGCUACAGCUUCAAGGUCAUCACCAGCCUCAUUCAACAGAGGAUUGAGCAUCA
B21: chr12:79975562:79975563:+_ENSMUSG00000021116_ENSMUST00000071230|mus_hu|FALSE|FALSE (ssRNA)
RNA: GGGAGUUCUACAGUCCGACGAUCGAAUUUGUCUUCACAUUUGAUUGCUUCCUCUGGAGAAACUCUUCUUUUUGACAAAUCAAUAUAUCCUUUUUCUUUGUCCACCCUAAUGACAACCACACACUCAUUCCUGCCAAUUCGGAUCAACAGAGGAUUGAGCAUCA
B22: chr19:53983630:53983631:+_ENSMUSG00000024975_ENSMUST00000025931|mus_mus|FALSE|FALSE (ssRNA)
RNA: GGGAGUUCUACAGUCCGACGAUCAUUUCCAUUUAUUUCAUUCUUUAUUUCUUCAGUGCCAGCAUUUUCUUCAUCUCCAGAAAAGAGAGAGUCGCUUAAAUUGUCAGGGUCAGUGGGGUUCACAUUCAGUGUCUGCUCAUUUUCCAACAGAGGAUUGAGCAUCA

The test deals with T1, UNK ZnF1-3. The test can be described thus: nsRBNS (natural sequence RNA bind-n-seq); RBNS binding buffer (assumed for nsRBNS): 25 mM Tris pH 7.5, 150 mM KCl, 3 mM MgCl2, 0.01% Triton X-100, 500 ug/ml BSA, 20 U/ml SUPERase-In, 4 C; UNK is unkempt and MSI1 is Musashi-1; names of the RNAs are library labels; protein concentration not given here; high values mean tight binding.
Consider B1, for which the binding signal was found to be 1.11 enrichment R. Molecule B2 gave a binding signal of 2.46 enrichment R. Then B3, with 0.629 enrichment R; and B4, with 0.727 enrichment R; and B5, with 2.19 enrichment R.

Consider B6, for which the binding signal came out at 0.667 enrichment R. In turn, B7 came in with a binding signal of 0.692 enrichment R. On to B8, for which the binding signal amounted to 0.637 enrichment R. With B9 the figure was 1.07 enrichment R; with B10, 1.35 enrichment R; with B11, 1.38 enrichment R. On to B12, for which the binding signal came out at 1.05 enrichment R. With B13 the figure was 0.791 enrichment R. With B14 the figure was 0.796 enrichment R; with B15, 0.625 enrichment R; with B16, 0.763 enrichment R. With B17 the figure was 1.24 enrichment R; with B18, 1.06 enrichment R. B19: the binding signal is 1.36 enrichment R. Molecule B20 came in with a binding signal of 1.06 enrichment R.

For the molecule B21, the binding signal turned out to be 0.71 enrichment R. With B22 the figure was 0.782 enrichment R.
